We go through four compounds from PubChem BioAssay (NCI).

Among the test systems are CAKI-1 renal; OVCAR-4 ovarian; NCI-H522 lung; EKVX NSCLC; COLO 205 colon; HCT-116 colon; SR leukemia; K-562 leukemia; NCI-H226 lung; LOX IMVI melanoma; KM12 colon; UACC-62 melanoma; SK-MEL-2 melanoma; OVCAR-5 ovarian; MCF7 breast; HL-60(TB) leukemia; M14 melanoma.
What all share (assay): NCI anticancer screen, dose series, 48 h

The structures appear in SMILES notation.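 Test compounds were applied to cells in 96-well plates for 48 hours at 5 doses. GI50 = concentration required for 50% inhibition of growth.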 Certain results were filed several times, with different values. The list is limited to them. An entry can have further records. For part of these data: Values that stand side by side repeat one measurement in other runs, samples, wells, individuals or studies. What stands in brackets tells the records apart. A, B and so on number the origins entry by entry.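 TGI denotes the concentration required for complete inhibition of growth.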 For part of these data: A record mostly stands for its own series of concentrations, which the source does not state; some values may only mark the edge of a range. A value given as a limit tells only on which side of the number the result lay.

As for `CC[C@@]1(O)C[C@H](OC2CC(N(C)C)C(OC3CC(O)C(OC4CCC(=O)C(C)O4)C(C)O3)C(C)O2)c2c(cc3c(c2O)C(=O)c2c(O)ccc(O)c2C3=O)[C@H]1C(=O)OC` (some centres undefined), the TGI was 0.0331 nM and 10.4 µM in the test on CAKI-1 renal; 1.25 nM and 210 nM with OVCAR-4 ovarian; 1.88 nM and 23 nM in the test with NCI-H522 lung.

For the compound `CN(C)CCNC(=O)c1cccc2cc([N+](=O)[O-])ccc12`, the GI50 in the test on EKVX NSCLC was 2.76 µM [sample A, 1 test] and 198 nM [sample B, 1 test]; with SR leukemia, 1.02 µM [sample A, 1 test] and 21.4 nM [sample B, 1 test]; with NCI-H226 lung it was 1.37 µM [sample A, 1 test] and 118 nM [sample B, 1 test]; in the test on KM12 colon it was 2.01 µM [sample A, 1 test] and 189 nM [sample B, 1 test]; in the test with UACC-62 melanoma, 2.91 µM [sample A, 1 test] and 162 nM [sample B, 1 test]; with SK-MEL-2 melanoma, 1.9 µM [sample A, 1 test] and 126 nM [sample B, 1 test]. In addition, the GI50 in the test with OVCAR-5 ovarian is 1.91 µM [sample A, 1 test] and 163 nM [sample B, 1 test]. Moreover, the TGI in the test on COLO 205 colon was 11.4 µM [sample A, 1 test] and 849 nM [sample B, 1 test]; with HCT-116 colon, 12.2 µM [sample A, 1 test] and 347 nM [sample B, 1 test]; in the test on K-562 leukemia it was 12.1 µM [sample A, 1 test] and 320 nM [sample B, 1 test]; in the test on OVCAR-4 ovarian it was 77.8 µM [sample A, 1 test] and 1.31 µM [sample B, 1 test]; in the test with NCI-H226 lung it was 5.03 µM [sample A, 1 test] and 473 nM [sample B, 1 test]; in the test with LOX IMVI melanoma, 7.19 µM [sample A, 1 test] and 310 nM [sample B, 1 test]. For the same compound, the TGI with KM12 colon was 38.9 µM [sample A, 1 test] and 1.22 µM [sample B, 1 test]; in the test on UACC-62 melanoma, 26.2 µM [sample A, 1 test] and 419 nM [sample B, 1 test]; in the test on SK-MEL-2 melanoma, 4.09 µM [sample A, 1 test] and 340 nM [sample B, 1 test].

As to `S=c1nc[nH]c2nc[nH]c12`, the GI50 with MCF7 breast was 9.2 µM [sample A, mean of 2 tests] and 371 nM [sample B, 1 test]. For the same compound, the TGI with HL-60(TB) leukemia is 168 µM, 53.9 µM [sample A] and 10.7 µM [sample B]; in the test on M14 melanoma it was > 734 µM, > 750 µM [sample A] and 32.7 µM [sample B].

For `COc1ccc(-c2ccc3ncc4c(c3c2)n(-c2ccc(N3CCNCC3)c(C(F)(F)F)c2)c(=O)n4C)cn1`, the TGI with COLO 205 colon is 1.09 µM [sample A, mean of 3 tests] and 108 nM [sample B, mean of 2 tests]; in the test with OVCAR-5 ovarian, 1.23 µM [sample A, mean of 3 tests] and 98.3 nM [sample B, mean of 2 tests].
